# Reference: PubChem BioAssay AID1347055 (National Center for Advancing Translational Sciences (NCATS), 2019)
# Screen size: about 54,000 compounds; about 120 (0.22%) were called active. The shares of active, inactive and inconclusive entries below differ from those in the screen. The call rests on the fitted dose curve; in most records, active means well fitted inhibition curve with a large enough effect; inconclusive means small, poorly fitted or top-dose-only effect, or effect the other way; inactive means flat fitted curve, though single readings scatter. No potency is given beside an inconclusive call; the fits are too rough.
# Target: Fumarate hydratase, mitochondrial (Homo sapiens) (UniProt P07954)
# Sequence of UniProt P07954 (P07954 whole entry, looked up): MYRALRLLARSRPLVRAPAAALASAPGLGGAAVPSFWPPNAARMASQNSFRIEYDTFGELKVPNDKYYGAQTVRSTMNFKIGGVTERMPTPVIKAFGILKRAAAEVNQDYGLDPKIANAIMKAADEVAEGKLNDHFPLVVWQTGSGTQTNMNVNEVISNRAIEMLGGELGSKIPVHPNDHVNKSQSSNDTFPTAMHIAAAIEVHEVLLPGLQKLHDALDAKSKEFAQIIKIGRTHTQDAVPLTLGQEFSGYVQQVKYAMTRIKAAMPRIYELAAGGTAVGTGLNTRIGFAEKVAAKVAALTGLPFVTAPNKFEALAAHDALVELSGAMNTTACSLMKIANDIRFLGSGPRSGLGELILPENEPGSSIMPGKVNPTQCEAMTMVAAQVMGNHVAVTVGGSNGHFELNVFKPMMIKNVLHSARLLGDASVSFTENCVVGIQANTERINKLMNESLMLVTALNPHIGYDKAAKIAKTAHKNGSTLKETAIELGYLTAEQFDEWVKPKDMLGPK
# Assay: Identification of activators of human fumarate hydratase by quantitative high-throughput screening; further: the screen sought activators but most active calls are inhibition curves; nearly all actives have a fitted effect of over 45% in size
# Conditions: FH coupled MDH/diaphorase resazurin fluorescence, 15 min; activity change, negative = inhibition: at 79.9 µM (top of the series)
# On the % scale 0 is the no-effect control and ±100 the full control effect; potency means the concentration at half of the fitted maximal effect; tags describe the fitted curve by direction and shape.
Compound,Potency,"activity change, negative = inhibition"
Cc1ccc(-c2nn(CC(=O)NC3CCCC3)c3c2cnc2ccccc23)cc1,"inconclusive [inhibitor, partial curve, poor fit]",–
Cc1ccc(CNC(=O)c2ccc(-c3nc(CS(=O)c4ccccc4)c(C)o3)cc2)cc1 (configuration not stated),inactive,–
Cc1cccc(-c2nc(CSCC(=O)NCCc3ccc(Cl)cc3)c(C)o2)c1,"inconclusive [inhibitor, single point]",–
Cn1cc(-c2c[nH]c3ncnc(N4CCOCC4)c23)cn1,inactive,–
COc1cc(NC(=O)N2CCC3(CC2)Nc2cc(F)ccc2-n2cccc23)cc(OC)c1OC,"inconclusive [inhibitor, single point]",–
CC(C)(C)c1ccc(CN(Cc2ccco2)c2cnc(S(C)(=O)=O)nc2C(=O)Nc2ccc(F)cc2)cc1,"inconclusive [inhibitor, partial curve]",–
COc1cc(C2c3c(-c4ccc(C)cc4)n[nH]c3C(=O)N2c2ccc(F)cc2)ccc1O (configuration not stated),"inconclusive [inhibitor, partial curve, poor fit]",–
COC(=O)c1c(NC(=O)c2cc(OC)c(OC)c(OC)c2Br)sc2c1CCC(C)C2 (configuration not stated),"inconclusive [inhibitor, partial curve, poor fit]",–
CCn1cc(C(=O)NCCc2ccc(OC)c(OC)c2)c(=O)c2cc(S(=O)(=O)N3CCC(C)CC3)ccc21,"inconclusive [inhibitor, partial curve, poor fit]",–
COc1ccccc1-c1cc(NC(=O)COc2ccccc2Cl)n(-c2ccccc2)n1,"inconclusive [activator, single point]",–
CC(=O)c1cccc(NC(=O)c2noc3c2CSc2ccccc2-3)c1,inactive,–
COc1ccccc1NC(=O)CCn1nc(-c2ccccc2)c2ccccc2c1=O,"inconclusive [inhibitor, partial curve, poor fit]",–
CCOC(=O)c1c(C)n(-c2ccccc2)c2ccc(OC(=O)c3ccc(OCC)c(OCC)c3)cc12,"inconclusive [inhibitor, partial curve, poor fit]",–
CN(C(=O)c1ccc2c(c1)N(Cc1ccccc1F)C(=O)c1ccccc1S2)C1CCCCC1,"inconclusive [inhibitor, partial curve, poor fit]",–
Cc1ccc(Cl)cc1N1CCN(CCCNc2ncnc3onc(-c4ccc(F)cc4)c23)CC1,"inconclusive [inhibitor, partial curve, poor fit]",–
Cc1cc(Nc2sc(C(=O)c3ccc(F)cc3)c(N)c2C(=O)Nc2ccc(F)cc2)ccc1Cl,"inconclusive [activator, single point]",–
Cc1ccccc1C(=O)NCC(c1cccnc1)N1CCc2ccccc21 (configuration not stated),"inconclusive [inhibitor, single point]",–
CCOC(=O)c1c(NC(=O)C(C)Sc2cn(CCNC(=O)c3ccc(OC)c(OC)c3)c3ccccc23)sc2c1CCC2 (configuration not stated),"inconclusive [inhibitor, partial curve, poor fit]",–
CCn1cc(C(=O)NCc2ccccc2)c(=O)c2cc(S(=O)(=O)N3CCCCC3)ccc21,"inconclusive [inhibitor, partial curve]",–

Compound,Potency,"activity change, negative = inhibition"
Cc1cc(C)cc(NC(=O)CN2C(=O)COc3ccc(S(=O)(=O)Nc4ccccc4)cc32)c1,"inconclusive [inhibitor, partial curve]",–
COc1ccc(NC(=O)CSc2oc(-c3ccc(C)cc3)nc2S(=O)(=O)c2ccc(C)cc2)c(OC)c1,"inconclusive [inhibitor, partial curve]",–
CC1(C)CC(NC(=O)C(=O)Nc2ccc(Br)cc2)CC(C)(C)N1,inactive,–
CCn1c(=O)c2cc(C(=O)NC3CCCCCC3)sc2c2ccccc21,"inconclusive [inhibitor, single point]",–
CCN(CC)S(=O)(=O)c1ccc(NC(=O)CCc2c(C)nc3cc(-c4ccc(Cl)cc4)nn3c2C)cc1,"inconclusive [inhibitor, partial curve, poor fit]",–
O=C1NC(=O)C(c2cnc3ccccn23)=C1c1cn2c3c(cccc13)CN(C(=O)N1CCOCC1)CC2,inactive,–
O=C(CCNS(=O)(=O)c1ccc2c(c1)CCN2C(=O)C1CC1)N1CCN(c2ccccc2F)CC1,inactive,–
CCc1ccc(NC(=O)CSc2nc(-c3ccccc3)c(C#N)c(=O)[nH]2)cc1,inactive,–
Clc1cccc(-c2csc(-c3nc(-c4ccc(Br)s4)cs3)n2)c1,"inconclusive [inhibitor, single point]",–
O=C(c1ccc(Cl)cc1)N1CCN(c2ccc([N+](=O)[O-])c3ncccc23)CC1,"inconclusive [inhibitor, single point]",–
Cc1cccc(-c2nc(SCC(=O)Nc3cccc(C(F)(F)F)c3)n3[nH]c(=O)cc3n2)c1,"inconclusive [inhibitor, single point]",–
CCn1c2c(c(=O)n3ncc(C(=O)Nc4cccc(Cl)c4C)c13)CN(Cc1ccc(OC)cc1)CC2,"inconclusive [inhibitor, partial curve, poor fit]",–
CCOc1ccc(CNC(=O)c2ccc3[nH]c(C)c(C)c3c2)cc1OC,inactive,–
CCOc1ccc2nc(N(Cc3cccnc3)C(=O)C3CCCCC3)sc2c1,–,inconclusive: -38.9% [inhibitor]
COC(=O)c1sc(-c2ccccc2)cc1NC(=O)Nc1ccc(F)cc1,"inconclusive [inhibitor, single point]",–
Cc1ccc(OCC(=O)Nc2ccc(S(=O)(=O)Nc3cc(C)on3)cc2)c(Br)c1,"inconclusive [inhibitor, single point]",–
Cc1ccc(C(=O)c2oc3ccccc3c2NC(=O)Cc2coc3ccc(C)cc23)cc1,"inconclusive [inhibitor, single point]",–
COCCNC(=O)CCCn1c(SCC(=O)c2ccc(Br)cc2)nc2c(sc3ccccc32)c1=O,inactive,–
